{"sequences": {"note": "Chains of the proteins cited; added tags and fusions are not shown. Lines headed by an entry give the natural chain unless they say otherwise; changes in a name come on top.", "UniProt Q7Z434": "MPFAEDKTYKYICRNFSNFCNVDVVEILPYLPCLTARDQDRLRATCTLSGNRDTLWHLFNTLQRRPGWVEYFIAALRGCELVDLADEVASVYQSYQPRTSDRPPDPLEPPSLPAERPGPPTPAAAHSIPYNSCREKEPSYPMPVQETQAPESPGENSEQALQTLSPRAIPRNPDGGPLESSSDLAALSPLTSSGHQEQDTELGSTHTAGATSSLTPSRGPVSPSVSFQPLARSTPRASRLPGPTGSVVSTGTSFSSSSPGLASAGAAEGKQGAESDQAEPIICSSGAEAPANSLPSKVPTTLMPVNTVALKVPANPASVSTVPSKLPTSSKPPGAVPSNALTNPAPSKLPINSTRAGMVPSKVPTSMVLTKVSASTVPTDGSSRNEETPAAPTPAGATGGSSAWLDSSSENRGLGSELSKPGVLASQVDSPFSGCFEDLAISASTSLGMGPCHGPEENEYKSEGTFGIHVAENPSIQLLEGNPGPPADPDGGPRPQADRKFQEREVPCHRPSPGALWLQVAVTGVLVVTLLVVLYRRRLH", "UniProt Q13283": "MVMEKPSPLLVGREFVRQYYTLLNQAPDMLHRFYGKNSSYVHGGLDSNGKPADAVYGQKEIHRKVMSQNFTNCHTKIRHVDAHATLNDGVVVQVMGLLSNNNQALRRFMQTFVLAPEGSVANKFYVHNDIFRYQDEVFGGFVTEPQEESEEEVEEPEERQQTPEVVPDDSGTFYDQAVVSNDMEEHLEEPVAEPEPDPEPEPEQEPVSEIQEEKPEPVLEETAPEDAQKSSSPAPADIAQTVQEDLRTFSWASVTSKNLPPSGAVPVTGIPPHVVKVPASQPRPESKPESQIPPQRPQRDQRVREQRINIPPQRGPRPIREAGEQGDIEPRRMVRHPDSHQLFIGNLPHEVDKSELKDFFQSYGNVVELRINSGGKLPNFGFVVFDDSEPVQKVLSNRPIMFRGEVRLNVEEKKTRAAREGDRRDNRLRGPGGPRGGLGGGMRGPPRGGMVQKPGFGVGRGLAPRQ"}, "source": "paper PMC6906297", "key": {"[1]": {"biological_target": "T1, Retinoic acid-inducible gene I (RIG-I), tagged, transfected (UniProt O95786)", "T1 sequence": "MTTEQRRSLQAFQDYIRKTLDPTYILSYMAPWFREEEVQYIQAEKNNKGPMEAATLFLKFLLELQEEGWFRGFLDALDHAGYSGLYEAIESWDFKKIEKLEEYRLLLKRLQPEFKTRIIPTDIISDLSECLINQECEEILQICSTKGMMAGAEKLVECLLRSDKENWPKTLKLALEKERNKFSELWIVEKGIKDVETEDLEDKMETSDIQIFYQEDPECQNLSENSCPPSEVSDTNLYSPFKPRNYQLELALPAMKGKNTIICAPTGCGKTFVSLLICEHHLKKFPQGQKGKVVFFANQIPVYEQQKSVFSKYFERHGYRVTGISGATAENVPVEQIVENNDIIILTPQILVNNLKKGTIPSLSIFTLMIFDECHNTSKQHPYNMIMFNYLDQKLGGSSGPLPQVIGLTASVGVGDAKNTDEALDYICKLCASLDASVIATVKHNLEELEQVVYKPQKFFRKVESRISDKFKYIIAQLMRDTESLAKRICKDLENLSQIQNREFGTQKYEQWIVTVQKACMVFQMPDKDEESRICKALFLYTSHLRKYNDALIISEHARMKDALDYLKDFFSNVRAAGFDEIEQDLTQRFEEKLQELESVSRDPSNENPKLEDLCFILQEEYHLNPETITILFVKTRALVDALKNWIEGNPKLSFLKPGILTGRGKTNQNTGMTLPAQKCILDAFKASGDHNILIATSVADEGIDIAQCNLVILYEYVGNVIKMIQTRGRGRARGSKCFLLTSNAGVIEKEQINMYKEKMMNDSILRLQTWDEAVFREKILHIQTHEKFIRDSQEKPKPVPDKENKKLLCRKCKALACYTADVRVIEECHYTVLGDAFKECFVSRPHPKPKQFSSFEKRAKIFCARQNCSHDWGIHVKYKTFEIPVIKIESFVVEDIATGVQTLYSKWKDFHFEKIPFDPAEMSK", "experiment": "co-IP; HEK293T cells (2 x 10^6) transfected with the indicated plasmids for 24 h; lysate with monoclonal antibody or control mouse IgG and protein G agarose, 4 °C, 2 h; washed with lysis buffer containing 0.5 M NaCl; western blot"}, "[2]": {"biological_target": "T2, RNF125, tagged, transfected (UniProt Q96EQ8)", "T2 sequence": "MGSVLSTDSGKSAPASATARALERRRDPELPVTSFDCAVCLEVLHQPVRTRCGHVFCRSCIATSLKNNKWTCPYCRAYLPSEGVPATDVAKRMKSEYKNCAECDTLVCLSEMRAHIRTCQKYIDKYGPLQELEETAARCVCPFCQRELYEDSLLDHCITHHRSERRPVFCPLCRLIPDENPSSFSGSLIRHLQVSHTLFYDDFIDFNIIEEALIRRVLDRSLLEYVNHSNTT", "experiment": "co-IP; HEK293T cells (2 x 10^6) transfected with the indicated plasmids for 24 h; lysate with monoclonal antibody or control mouse IgG and protein G agarose, 4 °C, 2 h; washed with lysis buffer containing 0.5 M NaCl; western blot"}, "MAVS, transfected": {"biological_target": "MAVS, transfected (UniProt Q7Z434)", "experiment": "co-IP; HEK293T cells (2 x 10^6) transfected with the indicated plasmids for 24 h; lysate with monoclonal antibody or control mouse IgG and protein G agarose, 4 °C, 2 h; washed with lysis buffer containing 0.5 M NaCl; western blot"}, "MDA5, transfected": {"biological_target": "T3, MDA5, transfected (UniProt Q9BYX4)", "T3 sequence": "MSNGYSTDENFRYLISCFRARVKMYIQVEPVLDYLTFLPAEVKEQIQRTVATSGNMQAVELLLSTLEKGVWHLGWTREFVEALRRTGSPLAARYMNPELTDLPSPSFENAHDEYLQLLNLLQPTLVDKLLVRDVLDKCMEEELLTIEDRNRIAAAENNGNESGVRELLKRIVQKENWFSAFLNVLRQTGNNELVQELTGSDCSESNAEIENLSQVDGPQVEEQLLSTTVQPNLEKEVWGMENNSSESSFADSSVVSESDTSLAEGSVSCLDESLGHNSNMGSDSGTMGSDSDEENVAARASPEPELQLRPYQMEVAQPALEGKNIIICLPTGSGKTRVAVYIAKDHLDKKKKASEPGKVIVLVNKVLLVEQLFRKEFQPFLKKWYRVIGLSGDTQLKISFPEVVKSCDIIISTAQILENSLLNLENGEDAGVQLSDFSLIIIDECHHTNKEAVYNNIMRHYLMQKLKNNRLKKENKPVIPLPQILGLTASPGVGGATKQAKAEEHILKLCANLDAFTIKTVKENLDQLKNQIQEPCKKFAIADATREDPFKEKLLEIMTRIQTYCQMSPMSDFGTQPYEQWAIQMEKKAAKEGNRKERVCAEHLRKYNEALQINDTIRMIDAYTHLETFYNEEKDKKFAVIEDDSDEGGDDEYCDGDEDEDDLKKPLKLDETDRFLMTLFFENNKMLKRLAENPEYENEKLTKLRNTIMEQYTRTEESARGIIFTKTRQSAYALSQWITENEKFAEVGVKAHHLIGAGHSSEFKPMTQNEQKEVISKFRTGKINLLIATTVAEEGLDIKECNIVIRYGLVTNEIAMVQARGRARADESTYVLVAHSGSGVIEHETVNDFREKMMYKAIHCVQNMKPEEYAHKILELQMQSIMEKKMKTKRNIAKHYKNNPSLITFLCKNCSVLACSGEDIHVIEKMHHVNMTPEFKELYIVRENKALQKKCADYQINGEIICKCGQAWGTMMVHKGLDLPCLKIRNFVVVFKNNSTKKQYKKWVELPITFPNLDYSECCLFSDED", "experiment": "co-IP; HEK293T cells (2 x 10^6) transfected with the indicated plasmids for 24 h; lysate with monoclonal antibody or control mouse IgG and protein G agarose, 4 °C, 2 h; washed with lysis buffer containing 0.5 M NaCl; western blot"}, "[3]": {"biological_target": "T4, RNF125, endogenous (human (endogenous in HEK293T)) (UniProt Q96EQ8)", "T4 sequence": "T2 sequence", "experiment": "co-IP; endogenous proteins; HEK293T cells (5 x 10^7) uninfected or infected with SeV for the indicated time; lysate with antiserum or pre-immune control serum; western blot"}}, "note": "Results are given in words; binding and its absence hold for the method and conditions named. Binding seen in cells or lysates may run through a third protein. Some results given as binding are weak or reduced against the parent protein; the word gives no strength. For part of these data: Where a sequence is shown, tags or fusion partners need not be part of it."}
{"substance": "G3BP1 RRM (from UniProt Q13283 340-415) (domain or fragment)", "values": [{"measurement": "binding", "setting": "[1]", "value": "no binding"}, {"measurement": "binding", "setting": "[2]", "value": "no binding"}]}
{"substance": "Ras-GTPase-activating protein SH3-domain-binding protein 1 (G3BP1), tagged, transfected (from UniProt Q13283 1-466)", "values": [{"measurement": "binding", "setting": "MAVS, transfected", "value": "no binding"}, {"measurement": "binding", "setting": "MDA5, transfected", "value": "no binding"}, {"measurement": "binding", "setting": "[2]", "value": "binds"}]}
{"substance": "G3BP1 NTF2 (from UniProt Q13283 11-133) (domain or fragment)", "values": [{"measurement": "binding", "setting": "[1]", "value": "no binding"}, {"measurement": "binding", "setting": "[2]", "value": "no binding"}]}
{"substance": "G3BP1, endogenous (from UniProt Q13283 1-466)", "values": [{"measurement": "binding", "setting": "[3]", "value": "binds"}]}
{"substance": "G3BP1 (E285A) mutant (from UniProt Q13283 1-466)", "values": [{"measurement": "binding", "setting": "[1]", "value": "binds"}]}
